Assay results as given in patent publication US8663679B2, “Compositions for improving breast health in women” (Abbott Laboratories, priority 2004, dated 2014).
Like-named read-outs stand apart in the source and are kept apart here.

Legend:
[1] = system: HECV endothelial cells
[2] = system: HECV endothelial cells; conditions: cited from earlier work

## CCCCC/C=C\C/C=C\C/C=C\CCCCC(=O)O [GLA, (Z,Z,Z)-6,9,12-octadecatrienoic acid]
[1]; HECV, tested at 10, 100, 200 μM
  concentration of most effect on transendothelial resistance: 100 µM

## [I-].[K+] [Iodine, potassium iodide]
[1]; HECV, tested at 10, 100, 1000 ng/ml
  concentration of most effect on transendothelial resistance: 10 ng/mL

## O=[Se](=O)([O-])[O-].[Na+].[Na+] [Selenium, sodium selenate]
[1]
  concentration of most effect on transendothelial resistance: 100 ng/mL

## 17-β-estradial [estrogen]
[2]
  tight junction function in endothelial cells (known effect): reduce tight junction function
